Where two headings read alike, the source gives them in different places.
Assays:
[1] = for signs of toxicity / side effects: 50 mg/kg
B. longum = test: Effect of CamSA on bacterial growth; details: 10 mM CamSA in medium
Vero cells [2] = test: Cytotoxicity of CamSA; assay type: cell-based
Caco-2 cells = test: Cytotoxicity of CamSA; assay type: cell-based
L. gasseri = test: Effect of CamSA on bacterial growth; details: 10 mM CamSA in medium
C. difficile cells = test: Effect of CamSA on bacterial growth; details: 10 mM CamSA in medium
[3] = system: C. difficile strain 630 spores; test: CDI prophylaxis in mouse CDI model; assay type: in vivo, mice; details: for development of CDI: 10^8 CFU spores
in vitro = details: human, Caco-2
[4] = system: bile salt hydrolases (BSHs) of B. longum
[5] = system: C. difficile strain 630 spores; test: CamSA dosage timing in CDI prevention
[6] = system: BSHs secreted by L. gasseri; details: Lactobacillus gasseri, 24 h
macrophages J774A.1 = test: Cytotoxicity of CamSA; assay type: cell-based; details: 200 μM CamSA
Vero cells [7] = assay type: cell-based; details: 200 μM CamSA
E. coli DH5α = test: Effect of CamSA on bacterial growth; details: 10 mM CamSA in medium
E. coli cultures = test: Stability in E. coli cultures; details: 24 hour incubation
[8] = taurocholate group, dose not given

C[C@H](CCC(=O)Nc1cccc(S(=O)(=O)O)c1)[C@H]1CC[C@H]2[C@@H]3[C@H](O)C[C@@H]4C[C@H](O)CC[C@]4(C)[C@H]3C[C@H](O)[C@]12C [CamSA, 3-[(3α,7α,12α-trihydroxy-24-oxo-5β-cholan-24-yl)amino]benzenesulfonic acid]
signs of toxicity / side effects ([1]; mice, gavage, 3 consecutive days): no signs of toxicity
weight changes ([1]; mice, 50 mg/kg chenodeoxycholate, 50 or 300 mg/kg CamSA, weight daily): no weight changes
growth in presence of CamSA (B. longum): unaffected
cell viability, visual observation and trypan blue staining (Vero cells [2]): appeared healthy
cell viability, visual observation and trypan blue staining (Caco-2 cells): appeared healthy
growth in presence of CamSA (L. gasseri): unaffected
growth in presence of CamSA (C. difficile cells): grew normally
Animals with CDI symptoms ([3]; 5 mg/Kg): 5/5
Average weight change 3 days post challenge ([3]; 5 mg/Kg): −8%
Animals with CDI symptoms ([3]; 25 mg/Kg): 5/5
Average weight change 3 days post challenge ([3]; 25 mg/Kg): −05%
Animals with CDI symptoms ([3]; 50 mg/Kg): 0/5
Average weight change 3 days post challenge ([3]; 50 mg/Kg): +05%
Animals with CDI symptoms ([3]; 300 mg/Kg): 0/5
Average weight change 3 days post challenge ([3]; 300 mg/Kg): +06%
development of CDI ([3]; 5 or 25 mg/Kg): developed CDI, but disease onset and severity were less pronounced
time asymptomatic animals remained free of CDI signs post-challenge ([3]; 50 or 300 mg/kg): at least 14 days
Papp A→B at 2 h, 10 µM (in vitro): < 1 ×10⁻⁶ cm/s
Papp B→A at 2 h, 10 µM (in vitro): 10.9 ×10⁻⁶ cm/s
efflux ratio at 2 h, 10 µM (in vitro): > 2
recovery (in vitro): 100%
A→B apical to basolateral apparent permeability (Papp) (Caco-2 monolayers; Caco-2): 0.0 10^−6 cm s^−
hydrolysis to cholic acid by B. longum culture [4]: hydrolyzed to cholic acid at similar rates
delay of disease onset compared to DMSO-treated animals ([5]; 300 mg/Kg at 12 hours post-infection): 24 h
time to clinical endpoint post infection ([5]; 300 mg/kg at 9 or 12 hours post-challenge): 48 h
Animals with CDI symptoms ([5]; Group I, first 300 mg/Kg CamSA dose 0 h after challenge): 0/5
Animals with CDI symptoms ([5]; Group II, first 300 mg/Kg CamSA dose 3 h after challenge): 0/5
Animals with CDI symptoms ([5]; Group III, first 300 mg/Kg CamSA dose 6 h after challenge): 0/5
Animals with CDI symptoms ([5]; Group IV, first 300 mg/Kg CamSA dose 12 h after challenge): 5/5
fraction hydrolyzed to cholic acid by L. gasseri [6]: Less than 30%
cell viability, visual observation and trypan blue staining (macrophages J774A.1): appeared healthy
cell killing by spent media from CamSA treated cultures (Vero cells [7]): less effective at killing
growth in presence of CamSA (E. coli DH5α): unaffected
stability with E. coli cultures (E. coli cultures): stable

CNC(=C[N+](=O)[O-])NCCSCc1ccc(CN(C)C)o1 [Ranitidine]
A→B apical to basolateral apparent permeability (Papp) (Caco-2 monolayers; human, Caco-2, 2 h, 10 µM): 0.3 10^−6 cm s^−
B→A basolateral to apical apparent permeability (Papp) (Caco-2 monolayers; human, Caco-2, 2 h, 10 µM): 1.8 10^−6 cm s^−
Efflux Ratio (Caco-2 monolayers; human, Caco-2, 2 h, 10 µM): 5.3

C[C@H](CCC(=O)NCCS(=O)(=O)O)[C@H]1CC[C@H]2[C@@H]3[C@H](O)C[C@@H]4C[C@H](O)CC[C@]4(C)[C@H]3C[C@H](O)[C@]12C [Taurocholate, 2-[(3α,7α,12α-trihydroxy-24-oxo-5β-cholan-24-yl)amino]ethanesulfonic acid, reference compound]
Animals with CDI symptoms [3, 8]: 3/3
Average weight change 3 days post challenge [3, 8]: −18%
hydrolysis to cholic acid by B. longum culture [4]: hydrolyzed to cholic acid at similar rates
stability with E. coli cultures (E. coli cultures): stable

CC(=O)CC(c1ccccc1)c1c(O)c2ccccc2oc1=O (stereo not drawn) [Warfarin]
A→B apical to basolateral apparent permeability (Papp) (Caco-2 monolayers; human, Caco-2, 2 h, 10 µM): 42.9 10^−6 cm s^−
B→A basolateral to apical apparent permeability (Papp) (Caco-2 monolayers; human, Caco-2, 2 h, 10 µM): 16.0 10^−6 cm s^−
Efflux Ratio (Caco-2 monolayers; human, Caco-2, 2 h, 10 µM): 0.4

C[C@H](CCC(=O)O)[C@H]1CC[C@H]2[C@@H]3[C@H](O)C[C@@H]4C[C@H](O)CC[C@]4(C)[C@H]3CC[C@]12C [chenodeoxycholate, reference compound]
signs of toxicity / side effects ([1]; mouse, in vivo): did not cause any observable side effects
signs of toxicity / adverse effects ([1]; mouse, in vivo, 300 mg/kg): caused immediate death
delay of CDI onset ([3]; 50 mg/kg): 24 h
development of CDI ([3]; 50 mg/kg): moderate to severe signs of CDI

From USRE49949E1, “Reducing risk of contracting clostridium-difficile associated disease” (The Board of Regents of the Nevada System of Higher …, priority 2012, dated 2024)
